Results published in PubChem BioAssay AID1347075 (National Center for Advancing Translational Sciences (NCATS), 2019).
The whole screen tested about 400,000 compounds, of which about 5,500 (1.4%) were called active. Another 9% or so got no clear call; they are omitted. The call rests on the fitted dose curve; in most records, active means well fitted cell-killing curve with a large enough effect; inconclusive means small, poorly fitted or top-dose-only effect, or effect the other way; inactive means flat fitted curve, though single readings scatter. Some structures have more than one record in an assay (separate samples or runs), and their calls can disagree. Not every entry of the source has a single result; some have several. They are shown here; other results are not. An entry can have further records. Values that stand side by side repeat one measurement in other runs, samples, wells, individuals or studies. Brackets tell where a record comes from. A, B and so on number the origins entry by entry.
Potency means the concentration at half of the fitted maximal effect.

Test: qHTS assay for MDR1-selective chemotherapeutics: Primary screen using the parental adenocarcinoma cell KB-3-1; further: nearly all actives have a fitted effect of over 60% in size
Details: KB-3-1 viability, CellTiter-Glo ATP luminescence, 72 h; series mostly up to 46.1 µM
Excerpt: A prime difficulty in effectively treating cancer is the development of cellular resistance to multiple structurally unrelated anticancer drugs, a phenomenon known as multidrug resistance (MDR). […] Numerous strategies to overcome P-gp-mediated MDR have been explored, including the design of drugs that evade recognition and efflux, and development of inhibitors to block efflux and restore drug accumulation. […] An alternative approach is to exploit resistance by identifying drugs that target MDR cells over the non-resistant parental cells from which they were selected. […]
Our goal is to identify compounds that selectively kill P-gp-expressing MDR cells. […] This assay will be utilized to conduct a quantitative high-throughput screen (qHTS) in collaboration with the NIH Chemical Genomics Center to identify selective agents, and probe hits arising from the screen will be validated using secondary assays and characterized through a well-established follow-up research program. […]
Briefly, 5 microL of media containing either KB-3-1 cells (columns 1-2, 4-48) are dispensed into Greiner white, treated solid-bottom 1536-well assay plates (media-only control is added to column 3). […] CellTiter-Glo (2.5 µL/well) is then added, and the plates are read in a ViewLux reader (Perkin-Elmer, clear luminescence filter, 1 second exposure, 1x binning) following a 10 minute incubation. […]
With `O=C(Cn1c[n+](CC(=O)c2ccc([N+](=O)[O-])cc2)cn1)c1ccc([N+](=O)[O-])cc1` the Potency was “inactive [sample A] and active: 11.6 µM [sample B]”. In the case of `O=C(C[C@H]1C(=O)N(c2ccc(F)c(F)c2)C[C@@H]1Cc1ccccc1)Nc1ccccc1`, the Potency is reported as “inactive [sample A] and active: 20.6 µM [sample B]”.
